# Reference: publication PMC4336329 (PLoS ONE, 2015)
# The whole screen tested about 310,000 compounds, of which about 14,000 (4.5%) showed an effect of 50% or more. Effects have a minus sign here. The list shows a part of the results.
# Biological target: human ether-à-go-go-related gene (hERG) potassium channel (human, UniProt Q12809)
# Test: primary screen, population patch clamp on CHO cells stably expressing hERG
# 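Note: peak tail current of the secondary pulse compared with the same well before compound.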
# human ether-à-go-go-related gene (hERG) potassium channel, sequence (Q12809 whole entry, looked up): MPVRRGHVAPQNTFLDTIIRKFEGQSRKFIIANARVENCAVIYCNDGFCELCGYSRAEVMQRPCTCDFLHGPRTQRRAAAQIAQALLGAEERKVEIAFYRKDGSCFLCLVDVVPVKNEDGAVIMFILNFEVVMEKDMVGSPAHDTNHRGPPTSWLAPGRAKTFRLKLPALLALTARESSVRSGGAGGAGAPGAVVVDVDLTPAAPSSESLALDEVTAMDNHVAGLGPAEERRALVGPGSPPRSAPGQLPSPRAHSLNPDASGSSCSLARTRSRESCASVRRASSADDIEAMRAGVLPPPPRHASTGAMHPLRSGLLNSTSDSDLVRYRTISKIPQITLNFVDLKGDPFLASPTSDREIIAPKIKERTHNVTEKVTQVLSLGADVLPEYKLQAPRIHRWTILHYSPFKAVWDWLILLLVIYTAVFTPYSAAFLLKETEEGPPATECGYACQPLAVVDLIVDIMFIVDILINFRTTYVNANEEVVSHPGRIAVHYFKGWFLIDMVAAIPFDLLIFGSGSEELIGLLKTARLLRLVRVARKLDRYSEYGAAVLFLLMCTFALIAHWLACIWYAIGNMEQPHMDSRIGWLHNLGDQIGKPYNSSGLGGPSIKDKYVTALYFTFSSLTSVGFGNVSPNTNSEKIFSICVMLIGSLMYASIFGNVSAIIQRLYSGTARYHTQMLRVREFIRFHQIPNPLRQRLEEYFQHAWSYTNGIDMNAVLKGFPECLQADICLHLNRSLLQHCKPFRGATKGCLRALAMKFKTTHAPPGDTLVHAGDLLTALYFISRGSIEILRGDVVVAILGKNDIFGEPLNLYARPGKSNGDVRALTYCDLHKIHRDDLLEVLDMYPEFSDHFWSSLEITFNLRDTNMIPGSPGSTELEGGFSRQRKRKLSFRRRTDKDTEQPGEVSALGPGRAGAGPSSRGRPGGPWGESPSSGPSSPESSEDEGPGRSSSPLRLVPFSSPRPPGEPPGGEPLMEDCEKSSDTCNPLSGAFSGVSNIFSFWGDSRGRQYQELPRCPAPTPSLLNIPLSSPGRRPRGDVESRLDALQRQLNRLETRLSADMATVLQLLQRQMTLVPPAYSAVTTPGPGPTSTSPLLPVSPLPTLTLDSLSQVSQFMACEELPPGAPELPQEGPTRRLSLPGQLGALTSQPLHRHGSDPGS
row,Compound,"hERG current change (%, negative = inhibition) at 10uM"
1,O=C(O)C1CC=CCC1C(=O)Nc1ccc(F)c(F)c1 (stereo not shown),28.2%
2,Cc1cccc(C(OC(=O)c2ccco2)C(=O)NCc2ccccc2)n1 (stereo not shown),-19.7%
3,COC(=O)c1ccc(NC(=O)CN(C)Cc2cccc(F)c2)cc1,-4.88%
4,CCOC(=O)c1c(C)[nH]c(C(=O)OCC(=O)Nc2sccc2C(N)=O)c1C,2.13%
5,O=C(N/N=C/c1ccccc1)c1ccc(CN2C(=O)c3cccc4cccc2c34)cc1,-4.32%
6,CN(c1ccccc1)S(=O)(=O)c1cccc(C(=O)NC2CCCCC2)c1,-18%
7,CCOC(=O)c1c(-c2ccc(OCC)cc2)csc1NC(=O)CCN1C(=O)c2ccccc2C1=O,21.2%
8,Cc1ccc(-c2nc(CCN3C(=O)c4ccccc4C3=O)cs2)cc1,-19.6%
9,CCOc1ccccc1Nc1nnc(SCC(=O)Nc2cccc(S(=O)(=O)NC3=NCCCCC3)c2)s1,5.08%
10,O=c1c2[nH]c3ccc(F)cc3c2nc2n1CCCS2,-3.41%
11,Cc1ccc(C)c(NC(=O)CSc2n[nH]c(-c3ccncc3)n2)c1,7.24%
12,COc1ccc(C(=O)c2nc3c(n2O)CCCCC3)cc1,-19%
13,CCCCCn1c(=O)[nH]c2cc(C(=O)Nc3ccc(OC)cc3)ccc2c1=O,14.9%
14,CN(CC1CCOCC1)C(=O)CC1C(=O)NCCN1Cc1ccc(Cl)c(F)c1 (stereo not shown),10.4%
15,COc1ccc(CN2C(=O)NC3(CCCCC3)C2=O)cc1F,-15.8%
16,Clc1cccc(Cl)c1Cn1nnc(-c2cccs2)n1,-1.03%
17,CCCc1noc2c1/C(=N\O)CCC2,13.1%
18,Cc1c(C(c2cccc([N+](=O)[O-])c2O)c2c(C)n(C)n(-c3ccccc3)c2=O)c(=O)n(-c2ccccc2)n1C,-2.28%
19,CCN1/C(=C/C(C)=C/c2sc3ccccc3[n+]2CC)Sc2ccccc21.[I-],-78.8%
20,COCCCNC(=S)N1CCC(C(=O)c2ccc3c(c2)OCCO3)CC1,-11.7%
21,CCn1c(=O)cc(SCC(=O)N(C)Cc2ccccc2)c2ccccc21,-19.6%
22,Cc1ccc(NC(=O)CSCC(=O)Nc2sccc2C#N)cc1,0.712%
23,O=C(NC1CCCC1)C(c1ccccc1)N(C(=O)c1csnn1)c1ccccc1F (stereo not shown),0.989%
24,Cc1ccc(-c2nnc3sc(C4COc5ccccc5O4)nn23)cc1 (stereo not shown),-1.05%
25,Nc1nc2n(n1)C(c1ccco1)CC(c1ccc(F)cc1)N2 (stereo not shown),-4.9%
26,O=C(CNC(=O)C1CCCCC1)OCn1nnc2ccccc2c1=O,7.18%
27,Cc1noc(C)c1CSCC(=O)Nc1nc2ccc(F)cc2s1,-16.7%
28,Cc1ccc(C(O)P(=O)(OC(C)C)c2ccc(N(C)C)cc2)cc1 (stereo not shown),11.5%

row,Compound,"hERG current change (%, negative = inhibition) at 10uM"
1,CC(=O)Nc1ccc(S(=O)(=O)Nc2nc3ccccc3nc2Nc2cccc(S(N)(=O)=O)c2)cc1,10.3%
2,Cc1c(NC(=O)Cn2[nH]c(=O)c3ccccc3c2=O)c(=O)n(-c2ccccc2)n1C,12.5%
3,Cc1cc(S(=O)(=O)Nc2cccnc2)c(Cl)cc1Cl,-1.49%
4,CC(C)(C)Nc1ncnc2c1cnn2-c1ccccc1,-4.54%
5,CCc1cc2cccc(C)c2nc1SCC(=O)c1ccc(NC(C)=O)cc1,-6.78%
6,Cc1ccc2oc(=O)n(Cc3ccccc3OC(C)C)c2c1,5.7%
7,CO/N=C/NC(=O)c1c(OC)ccnc1Oc1ccc(F)cc1,-5.89%
8,O=C(c1ccc2c(Cl)c3c(nc2c1)CCCC3)N1CCN(c2ccc(F)cc2)CC1,-2.1%
9,O=C(Nc1ccc(Br)cc1)c1cnc[nH]1,12.7%
10,Cc1ccc(NC(=O)CCn2c(=S)oc3ccccc32)cc1F,27.5%
11,COc1cccc(S(=O)(=O)NC2CCN(C#N)C2)c1 (stereo not shown),9.23%
12,COc1ccc(NC(=O)N(CCC(C)C)C(C)c2ccccn2)c(OC)c1 (stereo not shown),-10%
13,C=CC[C@H]1CC(Cc2ccccc2)=C[C@H](CC=C)N1.Cl,-35%
14,O=C(Nc1ncc(Cc2cccc(C(F)(F)F)c2)s1)C1CCCO1 (stereo not shown),-4.12%
15,O=C(CCC(=O)N(Cc1ccco1)C(C(=O)NC1CCCC1)c1ccncc1)Nc1cccnc1 (stereo not shown),1.77%
16,CCc1nnc(NC(=O)C2CCCO2)s1 (stereo not shown),22.1%
17,CCc1cc(Cn2nc(C(=O)O)cc2-c2ccccc2)on1,-14.8%
18,C#CCOCCOCCOCCNc1nc(N2CCN(C(=O)[C@H]([C@@H](C)O)n3cc(CCCC[NH3+])nn3)CC2)nc(N2CCN(C(=O)[C@H]([C@@H](C)CC)n3cc(CCC[NH+]=C(N)N)nn3)CC2)n1.[Cl-],11.5%
19,CN(C)C(CNC(=O)c1ccc2c(c1)S(=O)(=O)c1ccccc1C2=O)c1ccco1 (stereo not shown),-12.7%
20,O=C(CCN1C(=O)C2C3CCC(C3)C2C1=O)Nc1ccccc1C(F)(F)F (stereo not shown),10.4%
21,COc1ccc(Nc2ccc(S(=O)(=O)N3CCCCC3)cc2[N+](=O)[O-])cc1OC,-8.72%
22,COc1cccc(C2C3=C(CCCC3=O)Nc3[nH]n(-c4ccccc4)c(=O)c32)c1 (stereo not shown),20%
23,Cc1ccccc1NC(=O)c1ccc(C)c(S(=O)(=O)Nc2ccccn2)c1,13.1%
24,Cc1ccc(OCc2ccc(C#N)cc2)c(C(=O)c2cc(C#N)c(=O)n(C3CC3)c2)c1,5.46%
25,CC(C)CN(CCC(=O)O)CC(C)C,4.45%
26,CN1CC(C(=O)c2ccc(Cl)cc2)C(c2ccc(N(C)C)cc2)C1 (stereo not shown),-57.9%
27,CCCC(=O)Nc1ccc(Cl)c(NC(=S)NC(=O)c2ccco2)c1,4.78%
